Data on 31 sequences can be found in PMC12820563, “FoxP3 forms a head-to-head dimer in vivo and stabilizes its multimerization on adjacent microsatellites”.

Some of the results follow.

The target in this test is T1, MBP-FoxP1dN (Mus musculus, UniProt P58462 326-579).
T1 sequence: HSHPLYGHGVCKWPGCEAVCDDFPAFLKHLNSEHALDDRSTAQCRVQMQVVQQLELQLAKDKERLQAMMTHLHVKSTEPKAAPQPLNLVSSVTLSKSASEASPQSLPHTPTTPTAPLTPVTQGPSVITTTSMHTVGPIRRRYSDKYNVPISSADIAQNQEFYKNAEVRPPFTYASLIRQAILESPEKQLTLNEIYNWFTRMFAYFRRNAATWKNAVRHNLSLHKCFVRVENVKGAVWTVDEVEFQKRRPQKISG
Put plainly: PD-seq (MBP pull-down with sequencing); 20 mM Tris-HCl pH 7.5, 100 mM NaCl, 1.5 mM MgCl2, 0.4 uM protein, 0.1 uM dsDNA library, 30 min, room temperature, amylose pull-down; high values mean tight binding. The following applies: protein: recombinant; tags: His6-MBP; chain copies: 2; dsDNA, one strand shown. The essentials: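 Protein and DNA were mixed at 0.4 µM and 0.1 µM and held for 30 min at room temperature in Tris pH 7.5 buffer with NaCl and MgCl2; the protein was a His6-MBP-tagged, N-terminally truncated mouse FoxP3 or FoxP1 fragment from E. coli, and the DNA a Klenow-filled double-stranded degenerate library. Amylose resin captured the complexes, which were washed three times. Binding is read as reads-per-million enrichment of pull-down versus input after Illumina sequencing, with replicates pooled.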
As to “GATGATTGTTCTCCCAGCTGATGAATTGGTTCTTTCGAGTAAACAAATTTTCCTAATCTTTCTGTTCAAGCGCCATCTAC”, the binding signal is 1.04 RPM ratio (pull-down/input).

Regarding “GATGATTGTTCTCCCAGCTGATGAATTTGACAAGTCGAGTAAACAAATTTTCCTAATCTTTCTGTTCAAGCGCCATCTAC”, the binding signal is 0.82 RPM ratio (pull-down/input).

Consider “GATGATTGTTCTCCCAGCTGATGAATTTTCTTCGTCGAGTAAACAAATTTTCCTAATCTTTCTGTTCAAGCGCCATCTAC”, for which the binding signal is 0.923 RPM ratio (pull-down/input).

In the case of “GATGATTGTTCTCCCAGCTGATGAATTGACCCGGTCGAGTAAACAAATTTTCCTAATCTTTCTGTTCAAGCGCCATCTAC”, the binding signal was 0.81 RPM ratio (pull-down/input).

With “GATGATTGTTCTCCCAGCTGATGAATTCGATTTCTCGAGTAAACAAATTTTCCTAATCTTTCTGTTCAAGCGCCATCTAC”, the binding signal is 0.839 RPM ratio (pull-down/input).

On to “GATGATTGTTCTCCCAGCTGATGAATTTAGGTTGTCGAGTAAACAAATTTTCCTAATCTTTCTGTTCAAGCGCCATCTAC”, for which the binding signal was 1.11 RPM ratio (pull-down/input).

In the case of “GATGATTGTTCTCCCAGCTGATGAATTAAGATTGTCGAGTAAACAAATTTTCCTAATCTTTCTGTTCAAGCGCCATCTAC”, the binding signal was 1.02 RPM ratio (pull-down/input).

With “GATGATTGTTCTCCCAGCTGATGAATTTGTTCGATCGAGTAAACAAATTTTCCTAATCTTTCTGTTCAAGCGCCATCTAC”, the binding signal is 1.1 RPM ratio (pull-down/input).

With “GATGATTGTTCTCCCAGCTGATGAATTTGATCCTTCGAGTAAACAAATTTTCCTAATCTTTCTGTTCAAGCGCCATCTAC”, the binding signal is 0.825 RPM ratio (pull-down/input).

As for “GATGATTGTTCTCCCAGCTGATGAATTAAAGGCTTCGAGTAAACAAATTTTCCTAATCTTTCTGTTCAAGCGCCATCTAC”, the binding signal is 0.942 RPM ratio (pull-down/input).

On to “GATGATTGTTCTCCCAGCTGATGAATTTTTGGCTTCGAGTAAACAAATTTTCCTAATCTTTCTGTTCAAGCGCCATCTAC”, for which the binding signal is 0.917 RPM ratio (pull-down/input).

Take “GATGATTGTTCTCCCAGCTGATGAATTGGCCGTATCGAGTAAACAAATTTTCCTAATCTTTCTGTTCAAGCGCCATCTAC”: the binding signal is 0.861 RPM ratio (pull-down/input).

With “GATGATTGTTCTCCCAGCTGATGAATTCGGATTATCGAGTAAACAAATTTTCCTAATCTTTCTGTTCAAGCGCCATCTAC”, the binding signal was 0.894 RPM ratio (pull-down/input).

On to “GATGATTGTTCTCCCAGCTGATGAATTGTGATGATCGAGTAAACAAATTTTCCTAATCTTTCTGTTCAAGCGCCATCTAC”, for which the binding signal is 1.42 RPM ratio (pull-down/input).

With “GATGATTGTTCTCCCAGCTGATGAATTAGACTATTCGAGTAAACAAATTTTCCTAATCTTTCTGTTCAAGCGCCATCTAC”, the binding signal is 0.965 RPM ratio (pull-down/input).

Consider “GATGATTGTTCTCCCAGCTGATGAATTTTCATATTCGAGTAAACAAATTTTCCTAATCTTTCTGTTCAAGCGCCATCTAC”, for which the binding signal is 1.06 RPM ratio (pull-down/input).

Take “GATGATTGTTCTCCCAGCTGATGAATTGTCGATTTCGAGTAAACAAATTTTCCTAATCTTTCTGTTCAAGCGCCATCTAC”: the binding signal is 1.08 RPM ratio (pull-down/input).

Take “GATGATTGTTCTCCCAGCTGATGAATTACCGCCATCGAGTAAACAAATTTTCCTAATCTTTCTGTTCAAGCGCCATCTAC”: the binding signal was 1.01 RPM ratio (pull-down/input).

Turning to “GATGATTGTTCTCCCAGCTGATGAATTACTCCCATCGAGTAAACAAATTTTCCTAATCTTTCTGTTCAAGCGCCATCTAC”, the binding signal was 1.05 RPM ratio (pull-down/input).

“GATGATTGTTCTCCCAGCTGATGAATTGCCATTGTCGAGTAAACAAATTTTCCTAATCTTTCTGTTCAAGCGCCATCTAC”: the binding signal was 1.09 RPM ratio (pull-down/input).

In the case of “GATGATTGTTCTCCCAGCTGATGAATTCTTAACTTCGAGTAAACAAATTTTCCTAATCTTTCTGTTCAAGCGCCATCTAC”, the binding signal was 0.898 RPM ratio (pull-down/input).

As for “GATGATTGTTCTCCCAGCTGATGAATTGCTTGGATCGAGTAAACAAATTTTCCTAATCTTTCTGTTCAAGCGCCATCTAC”, the binding signal is 1 RPM ratio (pull-down/input).

“GATGATTGTTCTCCCAGCTGATGAATTGTCCGAATCGAGTAAACAAATTTTCCTAATCTTTCTGTTCAAGCGCCATCTAC”: the binding signal was 1.06 RPM ratio (pull-down/input).

“GATGATTGTTCTCCCAGCTGATGAATTAGAACGGTCGAGTAAACAAATTTTCCTAATCTTTCTGTTCAAGCGCCATCTAC”: the binding signal was 0.922 RPM ratio (pull-down/input).

As for “GATGATTGTTCTCCCAGCTGATGAATTTACCGCGTCGAGTAAACAAATTTTCCTAATCTTTCTGTTCAAGCGCCATCTAC”, the binding signal is 1.17 RPM ratio (pull-down/input).

As to “GATGATTGTTCTCCCAGCTGATGAATTTGATTCTTCGAGTAAACAAATTTTCCTAATCTTTCTGTTCAAGCGCCATCTAC”, the binding signal is 0.89 RPM ratio (pull-down/input).

As for “GATGATTGTTCTCCCAGCTGATGAATTCTGACGGTCGAGTAAACAAATTTTCCTAATCTTTCTGTTCAAGCGCCATCTAC”, the binding signal was 0.82 RPM ratio (pull-down/input).

Regarding “GATGATTGTTCTCCCAGCTGATGAATTTAAGGCTTCGAGTAAACAAATTTTCCTAATCTTTCTGTTCAAGCGCCATCTAC”, the binding signal was 0.888 RPM ratio (pull-down/input).

Turning to “GATGATTGTTCTCCCAGCTGATGAATTGCCGGATTCGAGTAAACAAATTTTCCTAATCTTTCTGTTCAAGCGCCATCTAC”, the binding signal was 0.886 RPM ratio (pull-down/input).

Consider “GATGATTGTTCTCCCAGCTGATGAATTGGCTACCTCGAGTAAACAAATTTTCCTAATCTTTCTGTTCAAGCGCCATCTAC”, for which the binding signal was 0.813 RPM ratio (pull-down/input).

“GATGATTGTTCTCCCAGCTGATGAATTGTTCAAGTCGAGTAAACAAATTTTCCTAATCTTTCTGTTCAAGCGCCATCTAC”: the binding signal is 1.09 RPM ratio (pull-down/input).
